Source: the supplement of paper PMC12645437, “Orthogonal IMiD-Degron Pairs Induce Selective Protein Degradation in Cells” (ACS Chemical Biology, 2025)
The other results are listed elsewhere or left out.

target: no compound (DMSO); assay: log2 fold change of degron read counts, EGFP-low vs EGFP+ sorted cells; higher = lower degron-EGFP level without compound (poor expression or instability); details: compound: DMSO control; 18 h
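Note: jurkat cells carrying a lentiviral library of mutant zinc finger degrons fused to EGFP plus mCherry, mCherry+ cells FACS sorted, degron abundance counted by next-generation sequencing.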

| Sequence | log2 fold change of degron read counts |
| --- | --- |
| FNCEVCGARFTQKGNLLRHIKL | 0.0393 |
| FMCDVCGAAFTQKGNLLRHIKL | -1.11 |
| FKCEICGHYFTQKGNLLRHIKL | -1.2 |
| FSCPVCGAPFTQKGNLLRHIKL | 0.261 |
| FYCNVCGAWFTQKGNLLRHIKL | 1.11 |
| FCCPICGACFTQKGNLLRHIKL | 0.175 |
| FWCEICGARFTQKGNLLRHIKL | -0.918 |
| FCCPQCGADFTQKGNLLRHIKL | -1.19 |
| FECSVCGHVFTQKGNLLRHIKL | -1.32 |
| FHCPICGRQFTQKGNLLRHIKL | -1.05 |
| FTCEQCGAPFTQKGNLLRHIKL | -1.47 |
| FICEICGAWFTQKGNLLRHIKL | -0.533 |
| FGCEICGHEFTQKGNLLRHIKL | 0.27 |
| FHCDVCGALFTQKGNLLRHIKL | -0.93 |
